Data published in patent publication US20160075790A1 (Bristol-Myers Squibb, published 2016).

T1: human isoleucine zipper-CD40L (IZ-hCD40L) (human, UniProt P29965 113-261)
T1 sequence: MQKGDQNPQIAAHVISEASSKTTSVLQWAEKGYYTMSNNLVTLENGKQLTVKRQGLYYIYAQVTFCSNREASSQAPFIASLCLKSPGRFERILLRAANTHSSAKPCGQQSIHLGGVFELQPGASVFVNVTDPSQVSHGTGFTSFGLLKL

T2: human CD40L, membrane-bound on cells (human, UniProt P29965 1-261)
T2 sequence: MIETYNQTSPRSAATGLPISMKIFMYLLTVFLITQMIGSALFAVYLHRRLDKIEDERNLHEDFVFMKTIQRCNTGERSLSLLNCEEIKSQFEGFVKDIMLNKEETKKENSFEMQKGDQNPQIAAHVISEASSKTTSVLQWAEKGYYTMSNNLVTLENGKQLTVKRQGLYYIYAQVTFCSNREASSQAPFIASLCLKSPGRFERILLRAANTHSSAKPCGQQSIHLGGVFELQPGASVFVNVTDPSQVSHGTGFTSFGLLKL

T3: biotinylated IZ-hCD40L (biot-IZ-hCD40L) (human, UniProt P29965 113-261, biotinylated)
T3 construct: biotinylated version of IZ-hCD40L captured on streptavidin chip; also called biotinylated CD40L; not shown: N-terminal isoleucine zipper motif
T3 sequence: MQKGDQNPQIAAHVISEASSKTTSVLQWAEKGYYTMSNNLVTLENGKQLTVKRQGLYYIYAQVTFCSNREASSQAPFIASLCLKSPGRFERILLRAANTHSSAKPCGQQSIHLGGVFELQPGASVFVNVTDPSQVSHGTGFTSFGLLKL

T4: cynomolgus monkey CD40L on cells (cynomolgus monkey, UniProt G7Q1T4 1-261)
T4 construct: whole, on cells; also called Cyno CD40L
T4 sequence: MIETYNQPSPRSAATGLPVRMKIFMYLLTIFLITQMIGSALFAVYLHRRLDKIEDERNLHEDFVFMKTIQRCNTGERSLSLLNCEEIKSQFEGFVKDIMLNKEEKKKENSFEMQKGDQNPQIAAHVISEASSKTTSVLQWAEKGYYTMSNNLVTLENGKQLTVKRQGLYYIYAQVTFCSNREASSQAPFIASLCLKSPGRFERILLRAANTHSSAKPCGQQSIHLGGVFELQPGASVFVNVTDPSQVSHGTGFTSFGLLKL


Columns and labels:
[1] = target: T1, human isoleucine zipper-CD40L …; experiment: cell-based or functional assay
[2] = target: T2, human CD40L, membrane-bound on cells; experiment: cell-based or functional assay
[3] = target: T3, biotinylated IZ-hCD40L (biot-IZ-hCD40L); experiment: SPR (Biacore), 25 C, 1:1 Langmuir; value influenced by avidity
[4] = target: T4, cynomolgus monkey CD40L on cells; experiment: in vivo receptor occupancy on monkey PBMC after 11 mg/kg IV; PK/PD Emax model

Binder	hIZCD40L-driven Human B Cell Proliferation EC50 [1]	CHO-hCD40L-driven DC Activation IL-12 EC50 [2]	CHO-hCD40L-driven Human B Cell Proliferation EC50 [2]	T-B cell MLR EC50 [2]	T-B cell MLR IL-6 EC50 [2]	Kd [3]	koff [3]	kon [3]	EC50 [4]
2h719-202-CT Long Fc (Fc fusion) EVQLLESGGGLVQPGGSLRLSCAASGFTFKKYEMMWVRQAPGKGLEWVSSISSDGSFTYYADSVKGRFTISRDNSKNTLYLQMNSLRAEDTAVYYCAEPFTEFDYWGHGTLVTVSSAST[not shown - human IgG1 Fc with changes]	3 nM	3.1 nM	2.5 nM	1.7 nM	1.3 nM				
BMS-986004 (Fc fusion) EVQLLESGGGLVQPGGSLRLSCAASGFTFNWELMGWARQAPGKGLEWVSGIEGPGDVTYYADSVKGRFTISRDNSKNTLYLQMNSLRAEDTAVYYCVKVGKDAKSDYRGQGTLVTVSSAST[not shown - human IgG1 Fc with changes]						0.11 nM	0.00026 s⁻¹	2.3e+06 M⁻¹ s⁻¹	3.4 nM
